Reference: the RNAGym collection of RNA variant scans (doi:10.7554/elife.90254)
Read counts are not given, so values of variants with three or more changes are uncertain.

B1: OR4K15 (parent)
chain: GUUAACGGUCAUAGGCCAUGGAAACUAGGAGCACCAUUUCGCUGCCAGUGAAGAAAUGAACAAAGAAAAUCUGGGCCAGGCAGGCAUCAAAAGAAAUAGUCUUGCGCUCAACCAGAAAGUCUGUAAUCAUUUUAAGGGUA

Variants of: B1
Assay: self-cleavage, relative activity (ratio to wild type); higher = more cleavage; in vitro, sequencing; the parent is a self-cleaving ribozyme

| Variant | self-cleavage |
| --- | --- |
| U3G A67G A90G U102C | 1.25 |
| U108G A110C A118G U124C | 0 |
| A4G A33G U70C A114G A116G | 0.48 |
| U12C A63G A67C A92U | 1.51 |
| A30G U37C A51G A56U U127C | 1.05 |
| A33G A86U A89G | 0.53 |
| A18G G44A A55G U72C | 0.49 |
| A47U A96U U130C | 0.22 |
| A24U C34U U57C U70C A126G U130C A140G | 0.2 |
| U49A U57A A82U A95G A96G U97A U100C | 0.44 |
| A18U A23G A110G C128U U131A | 0.25 |
| U9C A30G A82G U97C U120C A135G | 0.19 |
| G7A A62G A110G | 0.23 |
| G14A U19A C42U A52G A56G A60U A86G | 1.01 |
| A11G A63G A64C A89G U103G U122A A125G | 0.01 |
| A5G U19C A82G A96G U102C A116G A129G | 0.34 |
| A54G A55G A68G | 1.81 |
| A33G U37G A54G U72C | 0.29 |
| A33G A98G U100A U108C A110G | 0.01 |
| A22G A67G A110G | 0.13 |
| A13G U38C U87A G119A | 1.45 |
| U9C U57G U139A | 1.31 |
| U70C A89U U100A | 0.52 |
| A68G U102A A117U U130C | 0 |

| Variant | self-cleavage |
| --- | --- |
| G44A U57C U100C A116G | 1.33 |
| C34A A114G A118G | 0.28 |
| A91U A114G A126G | 0.08 |
| A23G A62G A91G | 0.62 |
| A5U A62G A82U | 0.26 |
| A33G A67G U87G U132C | 0.16 |
| U12A A54G A56G U87C | 0.48 |
| A111G G136U A140G | 0.01 |
| A13U A86G U87A | 1.49 |
| A68G A95G A110U | 2.01 |
| U37C A118G U133C | 0.79 |
| G7A U19A A23G A86G | 1.03 |
| G44U A56C A86C A89G | 0.36 |
| A59G A92G A96U U124C | 1.48 |
| U102C A117C U120C | 0.78 |
| A78G A94G U122C A125G A135G U139C | 0 |
| A47U A60G U87C | 0.53 |
| A24G A51G A56G A64G A94G A96G C128U | 0.45 |
| U3C A67G U103C | 0.98 |
| U103C G104A A116G | 0 |
| A23U U37C G80U A134U | 0.23 |
| C32U A96G U103C U133A | 0.66 |
| A23G U37C A60G A78U A116U | 0.03 |
| A66U A92G A117G U120A | 1.97 |

| Variant | self-cleavage |
| --- | --- |
| A11U G29A U108C | 0.01 |
| U57C A111G A117G U127C | 0 |
| A47G A135G U139C | 1.08 |
| A18G A33G A63G A78G U102C | 0.47 |
| A66G A94G A98G U102C U108C | 0.01 |
| U43C G50U A55G A78G | 0.27 |
| U19C A66G A126G U132A | 1.47 |
| A23G A78G A125G | 0.1 |
| A4U A51G A60G | 2.64 |
| U70C U72A A78G | 0.18 |
| A24G A27C A36G U39C | 0.78 |
| A22U U39G U49A | 0.87 |
| A22G A24G A51G | 1.28 |
| U19A U38G A117G | 1.61 |
| A56G A59G A89U U108C | 0.04 |
| U19C A66G A89C | 1.25 |
| U57C A69G C107A U132A | 0.01 |
| A66U A82G A92G | 0.42 |
| A22G U38A A68G | 1.11 |
| U49C A96G U102A U122C | 0.38 |
| U72C C81U U87C | 0.13 |
| U2A A5G U127A A135U | 0.96 |
| A4G A59U A126G | 0.79 |
| A13G G44A C45A U49C G79A | 0.03 |

| Variant | self-cleavage |
| --- | --- |
| A111G U124C A125G | 0 |
| U9C A96G A118G | 1.88 |
| A30G A52G U124C | 1.18 |
| A60G A94G U97C | 0.55 |
| U12C U57C U120C | 0.9 |
| A60G A90G U108C A118U | 0.01 |
| C40U C46A A60G A62G A63G U87C A94G A118G U133C | 0.5 |
| A5G A18U A24U U49C G137A | 1.12 |
| U43A A63U A89G | 2.31 |
| G7A U37C A94G U97C U102C U108C | 0.01 |
| A4G A13U A116G A140G | 1.24 |
| A24U A56G A78U | 0.13 |
| A22G A33G U127C A129G | 0.06 |
| U72C U122G U131C | 0.41 |
| A24G A33G A96G | 1.49 |
| U37C A51G A118G U127A | 0.82 |
| A52G C77U U120C | 1.65 |
| U49A A51U A110G | 0.24 |
| U2C A5G A33G A52G A91G | 1.07 |
| A51U A68G A92G A116G U120A | 0.37 |
| U49C A62G A126G | 1.05 |
| A22G A92G A110C U120C | 0.11 |
| A78U U103C U127C | 0.01 |
| G7A A23G A33C U43C A118C A126G U130C U139C | 0.57 |

| Variant | self-cleavage |
| --- | --- |
| A30G A33U U43C | 0.71 |
| A24G A67G A78U A89U A140G | 0.55 |
| A52G A60G A69G C71A A116G | 0.25 |
| U12C A22G U37C A55U C109U | 0.37 |
| A36U U49C U87C U100C A126U | 1.72 |
| U9C A66G A82G | 0.69 |
| U57C C61A G84U A86G | 0.34 |
| A60G A63C A68G G84A | 1.36 |
| A5G A27G A95G A110G | 0.19 |
| U37C A47C A135G | 0.96 |
| A51G A62G A94G U103C | 0.63 |
| A67G U103C A111G | 0 |
| A60G C105U U108C U133A | 0 |
| A22G A134U G137U | 0.95 |
| U39C A52U A62G A67C A91G | 1.58 |
| U19C A33C U39C | 1.45 |
| A4G A23G A96G | 0.67 |
| A91G U103C A140G | 0.33 |
| A51G A86G U108C | 0.03 |
| A5G A30G U57C | 0.48 |
| U9C U43A U87C A118G | 1.9 |
| U3C A59G A60G C101U | 0.25 |
| A66G A78U A111U | 0.01 |
| G53U A67G U97A | 1.97 |

| Variant | self-cleavage |
| --- | --- |
| U12C U38C U43C G48A A67G A118G | 0.4 |
| A24G U43C U97C U127A | 1.74 |
| U19A U108C A126G | 0 |
| A33G G65U A95G | 0.73 |
| A23G U87C U131C | 1.25 |
| A24C U43C A60G | 0.94 |
| A89G A90U A114U U132C | 0.03 |
| A24G A27U A66G G137A | 1.05 |
| A33G A82G A94U A117U | 0.26 |
| A54G A89U G115A U122C A140G | 0.04 |
| A51G A90G G106U | 0 |
| U2C A55G A96G U132C U139C | 0.93 |
| A24G A27G U38A | 1.29 |
| U9G A54G A90G U100C C105U A126G | 0.07 |
| A36U A67G C77U A110G A118G | 0.23 |
| A36U C88U U103C A111U | 0.19 |
| A23C A82U A91G A92G C109U A134G | 0.04 |
| A55G A89U U102C U103C | 0.23 |
| U87A A110G U130C | 0.12 |
| C32U U38C U108C A116G A135U | 0 |
| A55G U70A A78G U102C | 0.17 |
| G7U A24G G80A U120C | 0.21 |
| A54G A62G A82G A91G | 0.11 |
| A36G U49C A92G A118G U132C | 0.91 |

| Variant | self-cleavage |
| --- | --- |
| U9C U26C A59G A117G | 1.66 |
| C16U A24G A47G U120C | 0.85 |
| A22G A24G A116U | 0.48 |
| A47G A68G U130C A134G | 1.08 |
| A27G A30G A64G A69G | 0.52 |
| A63G A86G C101A U139C | 0.04 |
| A5G G73C U133C | 0.43 |
| A56G U57A A63G | 0.87 |
| A27U U43A U124A | 0.56 |
| A22G A62U A91G | 0.27 |
| A30G A52U U132C | 1 |
| G7U U57C U108C A117G | 0.02 |
| A27U A55G A126G G136U | 1.9 |
| A64G A90G U130C | 0.67 |
| A5G A66G A67G | 1.97 |
| U39A A95G A110U U122C | 1.66 |
| U38C A55G G74A U122C | 0.17 |
| A13G U26C U43A | 0.03 |
| U39C A90G U108C | 0.02 |
| U70A A86G U87C | 0.9 |
| U57C A62G C112U A129G | 0.03 |
| A78G U100C U132C | 0.25 |
| U9C C16U A129G | 1.36 |
